Source: US20260242416A1, “ANTIMICROBIAL PEPTIDES” (priority 2023, published 2026)
Some of these results come from one statement about several compounds together. Where a SMILES comes first, the peptide text is derived from it.

System: E. coli ATCC 25922, Salmonella Enteritidis, S. aureus ATCC 29213
Assay: Broth microdilution, panel result (at least one / all strains), Example 2
Type: cell-based
Settings: at least one of E. coli ATCC 25922, Salmonella Enteritidis, or S. aureus ATCC 29213
Procedure: The antimicrobial activity of the putative AMPs was determined by a broth microdilution assay as described by the Clinical and Laboratory Standards Institute, with the published adaptations for testing of cationic peptides. Escherichia coli 25922 and Staphylococcus aureus 29213 isolates were purchased from the American Type Culture Collection (ATCC; Manassas, VA, USA). A human clinical isolate of Salmonella enterica serovar Enteritidis was provided by the BC Centre for Disease Control. Bacteria from stocks stored at −80° C. were streaked onto nonselective Columbia blood agar with 5% sheep blood (Oxoid) and incubated overnight at 37° C. Next, 2-4 colonies were streaked onto a new agar plate to ensure uniform health of colonies used in the broth microdilution assay. Isolated colonies were suspended in MHB and the optical density was measured with a spectrophotometer to create an initial inoculum concentration of approximately 1×10^8 cfu/mL. The inoculum was diluted 1:250 to a final concentration of 2-8×10^5 cfu/mL, which was confirmed by performing a Total Viability Count (TVC). The TVC consisted of plating a 1:1000 dilution of the final inoculum on nonselective media and was also used to confirm the health and purity of the inoculum in each trial.
Lyophilized 80 μg peptide aliquots synthesized by GenScript (Piscataway, NJ, USA) were resuspended to 1.28 mg/mL with UltraPure water (Thermo Fisher Scientific, Waltham, MA, USA) and serially diluted in polypropylene 96-well microtiter plates (Greiner Bio-One #650261, Kremsmunster, Austria) from 128 down to 0.5 μg/mL. Two columns per plate were reserved for growth and sterility controls. Inoculum was added to the wells containing the peptide and the growth control. Plates were incubated for 20-24 h at 37° C. The minimum inhibitory concentration (MIC) was determined as the lowest peptide concentration where there was no visible bacterial growth.

Row | Structure (SMILES) | concentration exhibiting inhibitory activity against at least one strain
1 | CC[C@H](C)[C@H](NC(=O)CNC(=O)[C@H](CCCNC(=N)N)NC(=O)[C@H](CCCCN)NC(=O)[C@H](CCCCN)NC(=O)[C@H](CCCNC(=N)N)NC(=O)[C@@H]1CCCN1C(=O)[C@@H](NC(=O)[C@H](CCSC)NC(=O)[C@H](CC(C)C)NC(=O)[C@@H](N)CCCCN)[C@@H](C)CC)C(=O)N[C@@H](Cc1ccccc1)C(=O)NCC(=O)NCC(=O)N[C@@H](CC(C)C)C(=O)N[C@@H](CC(C)C)C(=O)N[C@@H](CCCCN)C(=O)N[C@H](C(=O)NCC(=O)N[C@@H](CCCCN)C(=O)N[C@@H](CCCCN)C(=O)N[C@H](C(=O)N[C@@H](C)C(=O)N[C@@H](CS)C(=O)NCC(=O)N[C@@H](CC(C)C)C(=O)N[C@@H](CO)C(=O)NCC(=O)N[C@@H](CC(C)C)C(=O)N[C@@H](CS)C(=O)O)[C@@H](C)CC)C(C)C [OdTo4] (H-KLMIPRKKRGIFGGLLKVGKKIACGLSGLC-OH; N-terminus and C-terminus assumed) | lower than 128 ug/mL
2 | CC[C@H](C)[C@H](NC(=O)CN)C(=O)N[C@@H](CC(C)C)C(=O)N[C@H](C(=O)N[C@@H](CC(=O)O)C(=O)N[C@H](C(=O)N[C@@H](CC(C)C)C(=O)N[C@@H](CCCCN)C(=O)NCC(=O)N[C@@H](C)C(=O)N[C@@H](C)C(=O)N[C@@H](CCCCN)C(=O)N[C@@H](CC(N)=O)C(=O)N[C@H](C(=O)N[C@@H](C)C(=O)NCC(=O)N[C@H](C(=O)N[C@@H](CC(C)C)C(=O)N[C@@H](CC(C)C)C(=O)N[C@@H](CC(=O)O)C(=O)N[C@@H](CCCCN)C(=O)N[C@@H](CC(C)C)C(=O)N[C@@H](CCCCN)C(=O)N[C@@H](CS)C(=O)N[C@@H](CCCCN)C(=O)N[C@H](C(=O)N[C@H](C(=O)NCC(=O)NCC(=O)N[C@@H](CS)C(=O)O)[C@@H](C)O)[C@@H](C)CC)C(C)C)C(C)C)[C@@H](C)O)[C@@H](C)O [PeNi11] (H-GILTDTLKGAAKNVAGVLLDKLKCKITGGC-OH; N-terminus and C-terminus assumed) | lower than 128 ug/mL
3 | CC(C)C[C@H](NC(=O)CNC(=O)[C@H](CO)NC(=O)[C@@H](NC(=O)[C@@H](NC(=O)[C@H](CS)NC(=O)[C@H](CC(C)C)NC(=O)[C@@H](NC(=O)[C@H](CCCCN)NC(=O)[C@H](CCCCN)NC(=O)CNC(=O)[C@@H](NC(=O)CNC(=O)[C@H](CC(C)C)NC(=O)[C@@H](NC(=O)[C@H](CCCCN)NC(=O)CNC(=O)[C@H](CC(C)C)NC(=O)[C@H](CC(C)C)NC(=O)CN)C(C)C)C(C)C)C(C)C)C(C)C)C(C)C)C(=O)N[C@@H](CS)C(=O)O [PeNi2] (H-GLLGKVLGVGKKVLCVVSGLC-OH; N-terminus and C-terminus assumed) | lower than 128 ug/mL
4 | CC[C@H](C)[C@H](NC(=O)CNC(=O)[C@H](CO)NC(=O)[C@H](CC(C)C)NC(=O)[C@H](CC(C)C)NC(=O)CN)C(=O)N[C@@H](CC(C)C)C(=O)NCC(=O)N[C@@H](C)C(=O)NCC(=O)N[C@@H](CCCCN)C(=O)N[C@@H](CCCCN)C(=O)N[C@H](C(=O)N[C@H](C(=O)N[C@@H](CS)C(=O)NCC(=O)N[C@@H](Cc1ccccc1)C(=O)N[C@@H](CO)C(=O)NCC(=O)N[C@@H](CC(C)C)C(=O)N[C@@H](CS)C(=O)O)C(C)C)[C@@H](C)CC [OdMa1] (H-GLLSGILGAGKKIVCGFSGLC-OH; N-terminus and C-terminus assumed) | lower than 128 ug/mL
5 | CC[C@H](C)[C@H](NC(=O)CN)C(=O)N[C@@H](Cc1ccc(O)cc1)C(=O)N[C@H](C(=O)NCC(=O)N[C@@H](CCCNC(=N)N)C(=O)N[C@@H](CC(C)C)C(=O)N[C@@H](CC(C)C)C(=O)N1CCC[C@H]1C(=O)N[C@H](C(=O)N[C@@H](Cc1ccc(O)cc1)C(=O)N[C@H](C(=O)N1CCC[C@H]1C(=O)N[C@@H](CCC(N)=O)C(=O)N1CCC[C@H]1C(=O)N[C@@H](CCCNC(=N)N)C(=O)N1CCC[C@H]1C(=O)N1CCC[C@H]1C(=O)N[C@@H](Cc1c[nH]cn1)C(=O)N1CCC[C@H]1C(=O)N[C@@H](CCCNC(=N)N)C(=O)N[C@@H](CC(C)C)C(=O)N[C@@H](CCCNC(=N)N)C(=O)N[C@@H](CCCNC(=N)N)C(=O)O)[C@@H](C)CC)C(C)C)[C@@H](C)O [ApCe1] (H-GIYTGRLLPVYIPQPRPPHPRLRR-OH; N-terminus and C-terminus assumed) | lower than 128 ug/mL
6 | CC[C@H](C)[C@H](NC(=O)[C@H](CCCCN)NC(=O)[C@H](CS)NC(=O)[C@H](CCCCN)NC(=O)[C@H](CC(C)C)NC(=O)[C@H](CC(N)=O)NC(=O)[C@H](CC(=O)O)NC(=O)[C@H](CC(C)C)NC(=O)[C@H](CC(C)C)NC(=O)[C@@H](NC(=O)[C@@H](NC(=O)[C@H](C)NC(=O)[C@@H](NC(=O)[C@H](CC(N)=O)NC(=O)[C@H](CCCCN)NC(=O)[C@H](C)NC(=O)[C@@H](NC(=O)[C@H](CC(N)=O)NC(=O)[C@H](CCCCN)NC(=O)[C@H](C)NC(=O)[C@@H](NC(=O)[C@H](CC(=O)O)NC(=O)[C@H](CCSC)NC(=O)[C@H](Cc1ccccc1)NC(=O)CN)[C@@H](C)O)C(C)C)C(C)C)C(C)C)[C@@H](C)O)C(=O)N[C@H](C(=O)N[C@@H](CCCCN)C(=O)N[C@@H](C)C(=O)N[C@@H](CS)C(=O)O)[C@@H](C)O [OdMa13] (H-GFMDTAKNVAKNVAVTLLDNLKCKITKAC-OH; N-terminus and C-terminus assumed) | lower than 128 ug/mL
7 | CC[C@H](C)[C@H](NC(=O)CNC(=O)[C@H](C)NC(=O)[C@@H](NC(=O)[C@H](CC(N)=O)NC(=O)[C@H](CCCCN)NC(=O)[C@H](C)NC(=O)[C@H](C)NC(=O)CNC(=O)[C@H](CCCCN)NC(=O)[C@@H](NC(=O)[C@@H](NC(=O)[C@H](CC(=O)O)NC(=O)[C@H](CC(C)C)NC(=O)[C@H](CC(C)C)NC(=O)[C@H](CC(C)C)NC(=O)CN)[C@@H](C)O)C(C)C)C(C)C)C(=O)N[C@@H](CC(C)C)C(=O)N[C@@H](CC(C)C)C(=O)N[C@@H](CC(N)=O)C(=O)N[C@@H](CCCCN)C(=O)N[C@@H](CC(C)C)C(=O)N[C@@H](CCCCN)C(=O)N[C@@H](CS)C(=O)N[C@@H](CCCCN)C(=O)N[C@H](C(=O)N[C@H](C(=O)NCC(=O)N[C@@H](CC(=O)O)C(=O)N[C@@H](CS)C(=O)O)[C@@H](C)O)C(C)C [PeNi10] (H-GLLLDTVKGAAKNVAGILLNKLKCKVTGDC-OH; N-terminus and C-terminus assumed) | lower than 128 ug/mL
8 | CC[C@H](C)[C@H](NC(=O)[C@H](C)NC(=O)[C@H](CCCNC(=N)N)NC(=O)[C@@H](N)CCCNC(=N)N)C(=O)N[C@@H](Cc1ccccc1)C(=O)N[C@@H](C)C(=O)N[C@@H](CO)C(=O)N[C@H](C(=O)N[C@@H](CCCNC(=N)N)C(=O)NCC(=O)N[C@@H](Cc1ccc(O)cc1)C(=O)N[C@@H](CC(C)C)C(=O)NCC(=O)N[C@@H](CC(C)C)C(=O)N[C@@H](CCCNC(=N)N)C(=O)N[C@@H](CCCCN)C(=O)N[C@@H](CCCNC(=N)N)C(=O)O)[C@@H](C)CC [MyGu1] (H-RRAIFASIRGYLGLRKR-OH; N-terminus and C-terminus assumed) | lower than 128 ug/mL
9 | CC(C)C[C@H](NC(=O)CN)C(=O)N[C@@H](CC(C)C)C(=O)NCC(=O)N[C@@H](CCCCN)C(=O)N[C@H](C(=O)N[C@@H](CC(C)C)C(=O)NCC(=O)N[C@H](C(=O)NCC(=O)N[C@@H](CCCCN)C(=O)N[C@@H](CCCCN)C(=O)N[C@H](C(=O)N[C@@H](CC(C)C)C(=O)N[C@@H](CS)C(=O)O)C(C)C)C(C)C)C(C)C [PeNi4] (H-GLLGKVLGVGKKVLC-OH; N-terminus and C-terminus assumed) | lower than 128 ug/mL
10 | CC[C@H](C)[C@H](NC(=O)CNC(=O)[C@H](CO)NC(=O)[C@@H](NC(=O)[C@H](CC(C)C)NC(=O)CN)[C@@H](C)CC)C(=O)N[C@@H](CC(C)C)C(=O)NCC(=O)N[C@@H](C)C(=O)NCC(=O)N[C@@H](CCCCN)C(=O)N[C@@H](CCCCN)C(=O)N[C@H](C(=O)N[C@@H](CC(C)C)C(=O)N[C@@H](CS)C(=O)O)C(C)C [OdMa9] (H-GLISGILGAGKKVLC-OH; N-terminus and C-terminus assumed) | lower than 128 ug/mL
11 | CC[C@H](C)[C@H](NC(=O)CN)C(=O)N[C@@H](Cc1ccccc1)C(=O)N[C@@H](CO)C(=O)N[C@@H](CC(C)C)C(=O)N[C@H](C(=O)N[C@@H](CCCCN)C(=O)NCC(=O)N[C@@H](C)C(=O)N[C@@H](C)C(=O)N[C@@H](CCCCN)C(=O)N[C@H](C(=O)N[C@H](C(=O)N[C@@H](C)C(=O)N[C@@H](CCCCN)C(=O)NCC(=O)N[C@@H](CC(C)C)C(=O)NCC(=O)N[C@@H](CCCCN)C(=O)O)C(C)C)C(C)C)[C@@H](C)CC [RaOm3] (H-GIFSLIKGAAKVVAKGLGK-OH; N-terminus and C-terminus assumed) | lower than 128 ug/mL
